# Test results as given in the supplement of paper PMC8728848.
# The list shows a part of the results.
# B1: Siglec 6 (Homo sapiens), O43699 (protein)
# chain: MLPLLLPLLWAGALAQERRFQLEGPESLTVQEGLCVLVPCRLPTTLPASYYGYGYWFLEGADVPVATNDPDEEVQEETRGRFHLLWDPRRKNCSLSIRDARRRDNAAYFFRLKSKWMKYGYTSSKLSVRVMALTHRPNISIPGTLESGHPSNLTCSVPWVCEQGTPPIFSWMSAAPTSLGPRTTQSSVLTITPRPQDHSTNLTCQVTFPGAGVTMERTIQLNVSYAPQKVAISIFQGNSAAFKILQNTSSLPVLEGQALRLLCDADGNPPAHLSWFQGFPALNATPISNTGVLELPQVGSAEEGDFTCRAQHPLGSLQISLSLFVHWKPEGRAGGVLGAVWGASITTLVFLCVCFIFRVKTRRKKAAQPVQNTDDVNPVMVSGSRGHQHQFQTGIVSDHPAEAGPISEDEQELHYAVLHFHKVQPQEPKVTDTEYSEIKIHK
# Assays:
# Assay in all cases: glycan array binding signal (z-score within array); higher = stronger binding
# Conditions in all cases: glycan notation: IUPAC condensed, linker removed
# [1] = target: Neu5Ac(a2-3)Gal(b1-4)GlcNAc
# Outline: (§1)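 Columns mapping to the same glycan were averaged after glycan names were converted to IUPAC-condensed notation. The data come from 3228 arrays in the Consortium for Functional Glycomics database, limited to those with an available protein sequence. Binding is reported as a within-array Z-score averaged across arrays of one protein sequence and across linkers.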
# [2] = target: Neu5Ac(a2-3)Gal(b1-4)GlcNAc(b1-3)Gal(b1-4)GlcNAc
# Outline: as §1
# [3] = target: Neu5Ac(a2-3)Gal(b1-4)GlcNAc(b1-3)Gal(b1-4)GlcNAc(b1-3)Gal(b1-4)GlcNAc
# Outline: as §1
# [4] = target: Neu5Ac(a2-3)Gal(b1-4)GlcNAc(b1-3)Gal(b1-4)[Fuc(a1-3)]GlcNAc
# Outline: as §1
# [5] = target: Neu5Ac(a2-3)Gal(b1-4)GlcNAc6S
# Outline: as §1
# [6] = target: Neu5Ac(a2-3)Gal(b1-4)[Fuc(a1-3)]GlcNAc
# Outline: as §1
# [7] = target: Neu5Ac(a2-3)Gal(b1-4)[Fuc(a1-3)]GlcNAc(b1-3)Gal
# Outline: as §1
# [8] = target: Neu5Ac(a2-3)Gal(b1-4)[Fuc(a1-3)]GlcNAc(b1-3)Gal(b1-4)GlcNAc
# Outline: as §1
# [9] = target: Neu5Ac(a2-3)Gal(b1-4)[Fuc(a1-3)]GlcNAc(b1-3)Gal(b1-4)[Fuc(a1-3)]GlcNAc(b1-3)Gal(b1-4)[Fuc(a1-3)]GlcNAc
# Outline: as §1
# [10] = target: Neu5Ac(a2-3)Gal(b1-4)[Fuc(a1-3)]GlcNAc6S
# Outline: as §1
# [11] = target: Neu5Ac(a2-3)Gal6S(b1-4)GlcNAc
# Outline: as §1
# [12] = target: Neu5Ac(a2-3)Gal6S(b1-4)[Fuc(a1-3)]GlcNAc
# Outline: as §1
# [13] = target: Neu5Ac(a2-3)GalNAc
# Outline: as §1
# [14] = target: Neu5Ac(a2-3)GalNAc(b1-4)GlcNAc
# Outline: as §1
# [15] = target: Neu5Ac(a2-3)[GalNAc(b1-4)]Gal(b1-4)Glc
# Outline: as §1
# [16] = target: Neu5Ac(a2-3)[GalNAc(b1-4)]Gal(b1-4)GlcNAc
# Outline: as §1
# [17] = target: Neu5Ac(a2-3)[Neu5Ac(a2-6)]GalNAc
# Outline: as §1
# [18] = target: Neu5Ac(a2-6)Gal(b1-4)GlcNAc
# Outline: as §1
# [19] = target: Neu5Ac(a2-6)Gal(b1-4)GlcNAc(b1-2)Man(a1-3)[Neu5Ac(a2-6)Gal(b1-4)GlcNAc(b1-2)Man(a1-6)]Man(b1-4)GlcNAc(b1-4)GlcNAc
# Outline: as §1
# [20] = target: Neu5Ac(a2-6)Gal(b1-4)GlcNAc(b1-3)Gal(b1-4)GlcNAc
# Outline: as §1
# [21] = target: Neu5Ac(a2-6)Gal(b1-4)GlcNAc(b1-3)Gal(b1-4)[Fuc(a1-3)]GlcNAc(b1-3)Gal(b1-4)[Fuc(a1-3)]GlcNAc
# Outline: as §1
# [22] = target: Neu5Ac(a2-6)Gal(b1-4)GlcNAc6S
# Outline: as §1
# [23] = target: Neu5Ac(a2-6)GalNAc
# Outline: as §1
# [24] = target: Neu5Ac(a2-6)GalNAc(b1-4)GlcNAc
# Outline: as §1
# [25] = target: Neu5Ac(a2-8)Neu5Ac
# Outline: as §1
# [26] = target: Neu5Ac(a2-8)Neu5Ac(a2-3)Gal(b1-4)Glc
# Outline: as §1
# [27] = target: Neu5Ac(a2-8)Neu5Ac(a2-3)[GalNAc(b1-4)]Gal(b1-4)Glc
# Outline: as §1
# [28] = target: Neu5Ac(a2-8)Neu5Ac(a2-8)Neu5Ac
# Outline: as §1
# [29] = target: Neu5Ac(a2-8)Neu5Ac(a2-8)Neu5Ac(a2-3)Gal(b1-4)Glc
# Outline: as §1
# [30] = target: Neu5Ac(a2-8)Neu5Ac(a2-8)Neu5Ac(a2-3)[GalNAc(b1-4)]Gal(b1-4)Glc
# Outline: as §1
# [31] = target: Neu5Ac(a2-8)Neu5Ac(a2-8)Neu5Ac(a2-8)Neu5Ac(a2-3)[GalNAc(b1-4)]Gal(b1-4)Glc
# Outline: as §1
# [32] = target: Neu5Ac9Ac(a2-6)Gal(b1-4)GlcNAc
# Outline: as §1
# [33] = target: Neu5Gc(a2-3)Gal(b1-3)GlcNAc
# Outline: as §1
# [34] = target: Neu5Gc(a2-3)Gal(b1-3)[Fuc(a1-4)]GlcNAc
# Outline: as §1
# [35] = target: Neu5Gc(a2-3)Gal(b1-4)Glc
# Outline: as §1
# [36] = target: Neu5Gc(a2-3)Gal(b1-4)GlcNAc
# Outline: as §1
# [37] = target: Neu5Gc(a2-3)Gal(b1-4)[Fuc(a1-4)]GlcNAc
# Outline: as §1
# [38] = target: Neu5Gc(a2-6)Gal(b1-4)GlcNAc
# Outline: as §1
# [39] = target: Neu5Gc(a2-6)GalNAc
# Outline: as §1
binder,measurement,setting,value
B1,glycan array binding signal (z-score),[1],-0.357
same,glycan array binding signal (z-score),[2],-0.522
same,glycan array binding signal (z-score),[3],-0.468
same,glycan array binding signal (z-score),[4],-0.55
same,glycan array binding signal (z-score),[5],-0.039
same,glycan array binding signal (z-score),[6],-0.244
same,glycan array binding signal (z-score),[7],-0.361
same,glycan array binding signal (z-score),[8],-0.028
same,glycan array binding signal (z-score),[9],-0.016
same,glycan array binding signal (z-score),[10],-0.113
same,glycan array binding signal (z-score),[11],-0.111
same,glycan array binding signal (z-score),[12],-0.501
same,glycan array binding signal (z-score),[13],-0.498
same,glycan array binding signal (z-score),[14],-0.4
same,glycan array binding signal (z-score),[15],-0.509
same,glycan array binding signal (z-score),[16],-0.145
same,glycan array binding signal (z-score),[17],-0.568
same,glycan array binding signal (z-score),[18],-0.266
same,glycan array binding signal (z-score),[19],-0.377
same,glycan array binding signal (z-score),[20],-0.476
same,glycan array binding signal (z-score),[21],-0.216
same,glycan array binding signal (z-score),[22],-0.044
same,glycan array binding signal (z-score),[23],-0.389
same,glycan array binding signal (z-score),[24],-0.157
same,glycan array binding signal (z-score),[25],0.187
same,glycan array binding signal (z-score),[26],-0.16
same,glycan array binding signal (z-score),[27],0.09
same,glycan array binding signal (z-score),[28],-0.276
same,glycan array binding signal (z-score),[29],-0.541
same,glycan array binding signal (z-score),[30],-0.466
same,glycan array binding signal (z-score),[31],-0.598
same,glycan array binding signal (z-score),[32],-0.211
same,glycan array binding signal (z-score),[33],-0.386
same,glycan array binding signal (z-score),[34],-0.488
same,glycan array binding signal (z-score),[35],-0.162
same,glycan array binding signal (z-score),[36],-0.551
same,glycan array binding signal (z-score),[37],-0.201
same,glycan array binding signal (z-score),[38],-0.078
same,glycan array binding signal (z-score),[39],-0.532
